Laboratory results from the supplement of paper PMC3724861.
The other results are listed elsewhere or left out.

System: T1, Caupolican (Caup) homeodomain DNA-binding domain
T1 sequence: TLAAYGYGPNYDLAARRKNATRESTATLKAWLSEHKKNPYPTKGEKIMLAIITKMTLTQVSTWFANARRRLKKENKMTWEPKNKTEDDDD
Test: PBM E-score (8-mer, recovered from the published 9-mer minima) (E-score (dimensionless, -0.5 to 0.5)); Drosophila protein; higher = stronger relative binding preference, active = 0.31 or more
How it was run: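 An enrichment score, with higher meaning stronger, expresses relative binding preference for each short DNA word. The protein used was Caup's homeodomain DNA-binding domain (residues 214-303), produced by in vitro transcription and translation and tested at 100 nM on custom-designed protein binding microarrays. The 8-mer values were recovered from published 9-mer scores, each equal to the lower of its two constituent 8-mer scores.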

**Q.** For GGATGAAC, which “PBM E-score” value is on record?
**A.** inactive: 0.015

**Q.** CCGATCAA was tested. Which “PBM E-score” value did it give?
**A.** inactive: -0.057

**Q.** Which “PBM E-score” value does the source give for GGGCGGAA here?
**A.** inactive: -0.158

**Q.** ATCGGAAG was tested. Which “PBM E-score” value did it give?
**A.** inactive: 0.0551

**Q.** With TAATAGTA as the sequence, how does the “PBM E-score” value read?
**A.** inactive: 0.177

**Q.** CCTAGGAG was tested. Which “PBM E-score” value did it give?
**A.** inactive: -0.0404

**Q.** Which “PBM E-score” value does the source give for GTTTATTA here?
**A.** inactive: 0.161

**Q.** For GTCCTCCA, which “PBM E-score” value is on record?
**A.** inactive: -0.0329

**Q.** For ACATCCAA, which “PBM E-score” value is on record?
**A.** inactive: 0.228

**Q.** ACGGCACA was tested. Which “PBM E-score” value did it give?
**A.** inactive: 0.00122

**Q.** With AACGGACT as the sequence, how does the “PBM E-score” value read?
**A.** inactive: -0.0289

**Q.** For TATCTAGA, which “PBM E-score” value is on record?
**A.** inactive: 0.0449

**Q.** With AGTCAGAA as the sequence, how does the “PBM E-score” value read?
**A.** inactive: 0.00034

**Q.** Which “PBM E-score” value does the source give for CTGGCAAC here?
**A.** inactive: -0.0596

**Q.** Which “PBM E-score” value does the source give for ATAGATCA here?
**A.** ≥ 0.187

**Q.** For AGTTAGAC, which “PBM E-score” value is on record?
**A.** inactive: 0.0958

**Q.** GGTAGCAA was tested. Which “PBM E-score” value did it give?
**A.** inactive: 0.049

**Q.** How did the “PBM E-score” value turn out when ATGCAAGC was run?
**A.** inactive: 0.0571

**Q.** ATAACACA was tested. Which “PBM E-score” value did it give?
**A.** inactive: 0.305

**Q.** With AAGTAGTG as the sequence, how does the “PBM E-score” value read?
**A.** inactive: 0.00888

**Q.** For ATTGTTGA, which “PBM E-score” value is on record?
**A.** inactive: 0.279

**Q.** For CATATTGC, which “PBM E-score” value is on record?
**A.** inactive: -0.025

**Q.** With CATCGGCC as the sequence, how does the “PBM E-score” value read?
**A.** inactive: -0.193

**Q.** AGGTAGCC was tested. Which “PBM E-score” value did it give?
**A.** inactive: -0.102

**Q.** How did the “PBM E-score” value turn out when GAAGCAGC was run?
**A.** inactive: -0.132

**Q.** How did the “PBM E-score” value turn out when CATGATGG was run?
**A.** inactive: 0.042

**Q.** With CGGCACAC as the sequence, how does the “PBM E-score” value read?
**A.** inactive: -0.144

**Q.** Which “PBM E-score” value does the source give for ACAGCCTG here?
**A.** inactive: 0.0595

**Q.** Which “PBM E-score” value does the source give for AGATCATC here?
**A.** inactive: 0.12

**Q.** CAGGCAGC was tested. Which “PBM E-score” value did it give?
**A.** inactive: -0.212

**Q.** Which “PBM E-score” value does the source give for ACGCTACT here?
**A.** inactive: -0.0439

**Q.** Which “PBM E-score” value does the source give for ATTTATAA here?
**A.** inactive: 0.0926

**Q.** For CTAGTAAG, which “PBM E-score” value is on record?
**A.** inactive: 0.107

**Q.** With ACAGAAGG as the sequence, how does the “PBM E-score” value read?
**A.** inactive: -0.0447

**Q.** CTTGAGTA was tested. Which “PBM E-score” value did it give?
**A.** inactive: 0.0779

**Q.** ATCTAATC was tested. Which “PBM E-score” value did it give?
**A.** inactive: 0.212

**Q.** Which “PBM E-score” value does the source give for CTTGATTC here?
**A.** inactive: 0.0185

**Q.** With ACCCAACA as the sequence, how does the “PBM E-score” value read?
**A.** inactive: 0.0894

**Q.** For CCGGATGC, which “PBM E-score” value is on record?
**A.** inactive: -0.19

**Q.** How did the “PBM E-score” value turn out when ATAGTTGA was run?
**A.** inactive: 0.0385

**Q.** Which “PBM E-score” value does the source give for ATACTCTG here?
**A.** inactive: 0.108

**Q.** For AAGGAGAA, which “PBM E-score” value is on record?
**A.** inactive: -0.0316

**Q.** Which “PBM E-score” value does the source give for AGAGCTAA here?
**A.** inactive: -0.0655

**Q.** Which “PBM E-score” value does the source give for ACGAAGAG here?
**A.** inactive: 0.049

**Q.** Which “PBM E-score” value does the source give for CCAGATCC here?
**A.** inactive: -0.232

**Q.** For GGCAAACA, which “PBM E-score” value is on record?
**A.** inactive: 0.134

**Q.** CGTGCAAA was tested. Which “PBM E-score” value did it give?
**A.** inactive: 0.0033

**Q.** How did the “PBM E-score” value turn out when GAGAGTGC was run?
**A.** inactive: -0.153

**Q.** Which “PBM E-score” value does the source give for GAACGTGC here?
**A.** inactive: -0.0483

**Q.** With ACGTCGAG as the sequence, how does the “PBM E-score” value read?
**A.** inactive: -0.0187

**Q.** For CCCATTAG, which “PBM E-score” value is on record?
**A.** inactive: -0.203

**Q.** ATATGAGA was tested. Which “PBM E-score” value did it give?
**A.** ≥ 0.113

**Q.** How did the “PBM E-score” value turn out when ACTAATTG was run?
**A.** inactive: 0.121

**Q.** With GCGTGTAA as the sequence, how does the “PBM E-score” value read?
**A.** active: 0.327

**Q.** For AACAACTC, which “PBM E-score” value is on record?
**A.** inactive: 0.167

**Q.** With CGCCCTAC as the sequence, how does the “PBM E-score” value read?
**A.** inactive: -0.0951

**Q.** Which “PBM E-score” value does the source give for CGTAGACG here?
**A.** inactive: -0.0639

**Q.** Which “PBM E-score” value does the source give for CGACGTAC here?
**A.** inactive: 0.0495

**Q.** With GTCGAAGA as the sequence, how does the “PBM E-score” value read?
**A.** inactive: 0.0184

**Q.** With GGGCACAA as the sequence, how does the “PBM E-score” value read?
**A.** inactive: -0.115

**Q.** Which “PBM E-score” value does the source give for ACGGTCCG here?
**A.** inactive: -0.154

**Q.** CCTTGGGC was tested. Which “PBM E-score” value did it give?
**A.** inactive: -0.299

**Q.** For AGCTTTAG, which “PBM E-score” value is on record?
**A.** inactive: -0.0997

**Q.** With CTCTAGAA as the sequence, how does the “PBM E-score” value read?
**A.** inactive: -0.0275

**Q.** How did the “PBM E-score” value turn out when GGGAGAGA was run?
**A.** inactive: -0.188

**Q.** Which “PBM E-score” value does the source give for ATCGAATA here?
**A.** ≥ 0.127

**Q.** With AGCTGCCT as the sequence, how does the “PBM E-score” value read?
**A.** inactive: -0.224

**Q.** Which “PBM E-score” value does the source give for CCACCAGA here?
**A.** inactive: -0.0319

**Q.** For TAAATTCA, which “PBM E-score” value is on record?
**A.** inactive: 0.0664

**Q.** For GTACATCA, which “PBM E-score” value is on record?
**A.** active: 0.383

**Q.** TCATATAA was tested. Which “PBM E-score” value did it give?
**A.** inactive: 0.184

**Q.** With CTGAAGAA as the sequence, how does the “PBM E-score” value read?
**A.** inactive: -0.0787

**Q.** How did the “PBM E-score” value turn out when CTCACCAC was run?
**A.** inactive: -0.0956

**Q.** For TAACCTAA, which “PBM E-score” value is on record?
**A.** inactive: 0.00458

**Q.** AACCGGTA was tested. Which “PBM E-score” value did it give?
**A.** inactive: -0.0523

**Q.** For ACCGTGTA, which “PBM E-score” value is on record?
**A.** active: 0.359

**Q.** TAAGCTGA was tested. Which “PBM E-score” value did it give?
**A.** inactive: 0.033

**Q.** CAATCCAC was tested. Which “PBM E-score” value did it give?
**A.** inactive: 0.0669

**Q.** For GTATGCAA, which “PBM E-score” value is on record?
**A.** inactive: 0.0814

**Q.** For ATAAACAT, which “PBM E-score” value is on record?
**A.** active: 0.321

**Q.** How did the “PBM E-score” value turn out when GAATTGGC was run?
**A.** inactive: -0.0814

**Q.** CTGTAAGA was tested. Which “PBM E-score” value did it give?
**A.** inactive: 0.138

**Q.** With CCGTCTAA as the sequence, how does the “PBM E-score” value read?
**A.** inactive: -0.111

**Q.** Which “PBM E-score” value does the source give for GTTGAAAA here?
**A.** inactive: 0.0647

**Q.** Which “PBM E-score” value does the source give for AAGGCGAG here?
**A.** inactive: -0.172

**Q.** CAGTTCAG was tested. Which “PBM E-score” value did it give?
**A.** inactive: -0.0606

**Q.** For AAAATTAC, which “PBM E-score” value is on record?
**A.** inactive: 0.105

**Q.** Which “PBM E-score” value does the source give for ATGAAAAT here?
**A.** ≥ 0.198

**Q.** With TAAGAGGA as the sequence, how does the “PBM E-score” value read?
**A.** inactive: -0.00194

**Q.** How did the “PBM E-score” value turn out when ATGGCCAC was run?
**A.** inactive: -0.159

**Q.** For CATCTCCC, which “PBM E-score” value is on record?
**A.** inactive: -0.141

**Q.** CTCACCCC was tested. Which “PBM E-score” value did it give?
**A.** inactive: -0.125

**Q.** Which “PBM E-score” value does the source give for GTTAACTA here?
**A.** inactive: 0.225

**Q.** How did the “PBM E-score” value turn out when CGTCCCAA was run?
**A.** inactive: 0.00097

**Q.** With CCTCATAC as the sequence, how does the “PBM E-score” value read?
**A.** inactive: 0.0479

**Q.** TCAGTAAA was tested. Which “PBM E-score” value did it give?
**A.** inactive: 0.0574

**Q.** Which “PBM E-score” value does the source give for CTCAAGAC here?
**A.** inactive: -0.0657

**Q.** For ACCTATAG, which “PBM E-score” value is on record?
**A.** inactive: 0.0161

**Q.** With AGGCCATG as the sequence, how does the “PBM E-score” value read?
**A.** inactive: -0.0199

**Q.** With GCAAAAAC as the sequence, how does the “PBM E-score” value read?
**A.** inactive: 0.121

**Q.** Which “PBM E-score” value does the source give for ACAGATGC here?
**A.** inactive: 0.0498

**Q.** AGTGACTA was tested. Which “PBM E-score” value did it give?
**A.** inactive: 0.0254

**Q.** Which “PBM E-score” value does the source give for AACAAACC here?
**A.** inactive: 0.161

**Q.** CGACTGCA was tested. Which “PBM E-score” value did it give?
**A.** inactive: -0.0454

**Q.** AACCGACT was tested. Which “PBM E-score” value did it give?
**A.** inactive: -0.0866

**Q.** Which “PBM E-score” value does the source give for ATGAAAGC here?
**A.** inactive: 0.0313

**Q.** With AGGCACGA as the sequence, how does the “PBM E-score” value read?
**A.** inactive: -0.0862

**Q.** How did the “PBM E-score” value turn out when TTAGGGAA was run?
**A.** inactive: 0.0477

**Q.** CAGAGAAC was tested. Which “PBM E-score” value did it give?
**A.** inactive: -0.0238

**Q.** TCTCTACA was tested. Which “PBM E-score” value did it give?
**A.** inactive: 0.134

**Q.** Which “PBM E-score” value does the source give for GCGGTCCC here?
**A.** inactive: -0.283
